# Measurements reported in the supplement of paper PMC11417369.
# The list shows a part of the results.
# System: PfAP2-HC AP2 domain (GST-tagged)
# Assay: gcPBM binding intensity (ln(normalized median fluorescence intensity)); higher = stronger DNA binding
# In short: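 An Agilent 4 × 180k array carrying primer-extended double-stranded 36-bp intergenic genomic probes and negative controls received GST-tagged P. falciparum DNA-binding domains expressed in E. coli, about 25 μg on average, for 1 h. The binding buffer contained 1× PBS, 1% milk, 0.2 mg/ml BSA, 0.5% salmon testes DNA and 0.03% Triton X-100. Binding intensity is the top Masliner-normalised natural-log median intensity across replicate spots of either probe orientation, read after Alexa488 anti-GST antibody staining and a 488 nm scan.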
row,Sequence,gcPBM binding intensity (ln)
1,ATGCAATAATAATGGAGTACATATTAATATTGATCA [XGTACX_site2312],9.66
2,AAAAAATATATTAAGGCACACACATACATATATATA [CACACA_site9239],10.2
3,CCTTTTGGATGAAAGTGTACAGGTGAGAAAAATTCC [XGTACX_site3358],9.5
4,TTAATTTCGAATTATTGTACATTAATATATCTACAG [XGTACX_site3314],9.4
5,AAAACAAATAGACACGCACACAAAAAAAAAAAAAAA [CACACA_site801],10.3
6,ATATATATATATATATGTACATAAATATAAATTTAA [XGTACX_site8715],9.64
7,TTTTAAAACAATGAGATTCCTTTCTTTTTTTCTTTT [CACACA_negctrl_site1320],9.35
8,ATATTTATTTATATCATACACACTAATATGTATATT [CACACA_site7576],9.87
9,TATCCCTTAGAATACACACCCATATGAGGGTGAACT [CACACA_site5610],9.52
10,CTTAATGATAAATACATACACACAAAAAATAATATA [CACACA_site2577],9.87
11,AAGAAAATGTAGAATTAGAAATAAATGAAGAAATGA [TGCATGCA_negctrl_site548],9.62
12,TATATGTTTAATTTCACACACAAATATACATTTTAA [CACACA_site4171],9.79
13,AGTAGATTTTTATTAGTGCATTTTATACTACAAAAA,9.42
14,CATTAGCATTTTATTACACACAATAAATTAGAAGTA [CACACA_site7837],9.66
15,ATTCTTAAATGTGGTTGTACATATTATCACCTTTAA [XGTACX_site8188],9.65
16,TTTTTAATTTTATATACACACATAAAAGATATGAAG [CACACA_site7470],9.33
17,ATATTCTCTTAAATATGTACGTATGTATATATATAT [XGTACX_site5885],9.79
18,CGCAAAACAATGATACGTACATATATATATATATAT [XGTACX_site5883],9.68
19,AACGAAAACACTACGTGTACCAAACGTCCTACCAAC [XGTACX_site257],10.2
20,AATAGTTAAATACATACATGCATTCATATAATATAT [TGCATGCA_site433],9.67
21,AAGATAAAAATATGCACACATATATATATATATATA [CACACA_site404],10.1
22,TAATTAAGAATATATAGTACATAGTTGAAAAACTTT [XGTACX_site6359],9.46
23,AATGTACGCATATACACACACATAAATAGATACGTA [CACACA_site3406],10

row,Sequence,gcPBM binding intensity (ln)
1,TTTTTTTTTTTTTTTTTTTTACGATATATTTTAAAA [XGTACX_negctrl_site401],8.57
2,TAGATCATAACAATTGCACACATTTGCATTTATATT [CACACA_site1562],9.92
3,TTTTTACTTATTTATTATGTACAATTTCTTCTTTCT [CACACA_negctrl_site264],9.76
4,TTCAAAAAATATATCTGTACAAATTATGTAGATGAA [XGTACX_site5522],9.44
5,AGTATTTTGTTTATCACACATATTGGAATTTTCAAT [CACACA_site4686],9.73
6,AAAATAATTCAATGTAGTACAATACAAATTGAGAGA [XGTACX_site5991],9.8
7,AAAATTATACACACACGTACATATAAATAGAAATAT [XGTACX_site1753],10.3
8,TTTGTTGGTATGGTTACACACATTTAGGAAATAAAA [CACACA_site1411],9.65
9,TCTTATAAATTAAATATAAAAAAAAAAAAAAAAAAA [XGTACX_negctrl_site77],8.86
10,TTTTTATAACAGCTTAGTACATATAAGAATTCTTGC [XGTACX_site5890],9.47
11,GACCCCATATACATATGTACATACATAATATATATA [XGTACX_site1817],9.89
12,AAATGGACAGTATAAAAATGGAGAATATAAAAATTT [CACACA_negctrl_site889],9.72
13,TATATATAAAAAAAAAGTACATATAATATAATATTT [XGTACX_site7902],9.61
14,GGTGTTTTTCACAGATGTACACAAATAAAAAAGAAA [XGTACX_site4454],9.61
15,CCTTTTTATTTTTGTAGTACTACATATACATATCTG [XGTACX_site7791],9.82
16,AAAAAAAAAAAAAATAAATAAATAAATAAATATATA [GTGCAC_negctrl_site382],9.34
17,ATATTAAAAAAATATAAACACACAAAAAAAAAATAT [CACACA_site8283],9.91
18,TATTCAAAGAAAAACTGTACGTGTAGCAAACGTCAT [XGTACX_site7713],9.55
19,AAAATAATGAAATGAAAAAAAAAAATTTAGATTCTA [CACACA_negctrl_site1385],9.47
20,AAAAAAAAAAAAAATACACACATATTTTATAGGGGA [CACACA_site3261],9.78
21,TATTTTTTGAAAAGTTCACACATCCAACTCGAGTTG [CACACA_site4412],9.62
22,TTATATATTTTTAGGTGTACTTTTTTTTTTTTTTTT [XGTACX_site8164],9.54
23,GTCATATATTTATGTACACACATATATATATTTATA [CACACA_site4911],9.86

row,Sequence,gcPBM binding intensity (ln)
1,CTAATTGTTATTTTGTGTACTTATCATTCGAAATAT [XGTACX_site7963],9.7
2,AAAAAACAAATAAGTAAACACACATATATAATATAT [CACACA_site8830],10.3
3,TAGATGTAAGTACATACACACATATATAAATAAATA [CACACA_site8528],9.95
4,ATATATATTTTAATTACACACAAAAAAAAAAAAAAA [CACACA_site4778],9.38
5,AGGATATATATATTCACACACACATGGAAATATATA [CACACA_site383],10.2
6,ATATATATTTTATATTGTACTTATTATTTTTAGGGC [XGTACX_site723],9.53
7,TATGAATATCTATACACACACATATAAATACACGCT [CACACA_site6853],10.3
8,GTATAATTGGAAATTACACACCTTAGAATGTAACAT [CACACA_site4059],9.68
9,ATTATAATATATATATGTACATATATATATAATACT [XGTACX_site5092],9.66
10,TATAATATACTATGTGGTACATATATATATTTATAG [XGTACX_site4556],9.77
11,ATATATAATATTGGTGGTACAAGGGTATTTTATATT [XGTACX_site8215],9.84
12,TCATTTATTTTTCTTTGTACACAAAAGTTTTTATGT [XGTACX_site690],9.81
13,CATATGTTATATGTAGTGCATTACTATAGGATTTAT [GTGCAC_site9860],9.6
14,TATTTTGCAAAATGTGCATGTTGTGTATTATGTGAC [TGCATGCA_site59],9.77
15,TATTTTTAATTTTTTAATGGTTTAATATTTTTATAT [CACACA_negctrl_site1186],9.56
16,TGGTATGCAATATTGGTGCGTATATATTTTAAAGGG,9.62
17,TATTCTAAGATAAGTGGTACTTATATATAATATATA [XGTACX_site8316],9.27
18,TCTTTAGCTTCTTCTTTTTTTTTTTTTTTTTTTTTT [XGTACX_negctrl_site518],9.51
19,ATATATATATATATATGTACATAAACATATATATAT [XGTACX_site1064],9.68
20,ATCCGTGGGTGAAATACACACATGATAATGTGAATG [CACACA_site4662],9.68
21,ATAAATGAACAAGTGGCACACACACCGTATAACTAA [CACACA_site9047],10.4
22,TGAAAAATATAAGGTTGTACTTACATCGGGAATAAT [XGTACX_site4701],9.73
23,AATTATGTGTGTCAATGTACACGATTTACATAATAT [XGTACX_site5150],9.84

row,Sequence,gcPBM binding intensity (ln)
1,AATATATGGTTTCTTGATATTAAATTCAATTTAATG [CACACA_negctrl_site69],9.51
2,AATCTTTGTAATAAAAGTACATTAATTTTATTAATA [XGTACX_site8325],9.37
3,ACACATACAACGTGGTGTACAAATAATTATAATCAA [XGTACX_site2287],10.1
4,TAAGTATATATATTTACACACATTTGTTTTTTTTTA [CACACA_site3784],9.81
5,TTTTAAATACTTTATTGTACATTATATATATATATA [XGTACX_site7021],9.68
6,AAAAAAAAAAAAAAAAGTACATATAATAAATAATGA [XGTACX_site7931],9.52
7,TATATCTTAATATTTACACACATGCGCACCCATAAA [CACACA_site5349],9.95
8,ATATAAACACTGAATGCATGCACATATATATATATA [TGCATGCA_site940],10.6
9,GGGGGGGGAGGGTGAATACACACGTAATAATCATAA [CACACA_site1716],9.69
10,TTTTTTTTTACTAACTGTACTAAAGAAAAAAAAGGG [XGTACX_site3519],9.32
11,ATAAAGGAATTTTATACACACAACATATATATATAT [CACACA_site2861],9.76
12,ATGTGTATATGTGTGGGTACTTAATTTTTTTCTTTA [XGTACX_site5351],10
13,CGTATTATTATATAAACACACAAGGGGGCATGTATA [CACACA_site745],9.92
14,AATTCTGGCAAAATAACACACACATATATTTTATAT [CACACA_site9064],10.1
15,GTTATAATTGAACTAGTGCATAAATATATTTTAATT [GTGCAC_site9851],9.55
16,TATCTTTTTTTTAATACACACAAATATATGAAAGTA [CACACA_site4161],9.52
17,AGTATAACTTTTGCGCGTACACACATTTATCCTCTT [XGTACX_site429],10.4
18,TTTGAATACTGAATGGTGCAAATTGTTCTCCCCATG,9.44
19,TATATTAAAATAATCACACACATCAATTAATGGTAA [CACACA_site1234],10
20,TATAATAATATTTACACACGCATATGTTATATATAT [CACACA_site1477],9.79
